Test results from the supplement of paper PMC4967469.
By IC50 is meant the dose at which the fit gives 50% viability; fits outside the tested doses are given as limits. The AUC spans the tested range (256-fold, ending at the top dose) of the same fit: 1 means no effect, lower means more sensitive. The top dose, if marked as inferred, was calculated from the reported fits. For some of these results: Where an entry number is given, a second screen of the drug exists; the two often differ.

How the values were obtained:
AKT inhibitor VIII = compound: O=c1[nH]c2ccccc2n1C1CCN(Cc2ccc(-c3[nH]c4cc5ncnc5cc4nc3-c3ccccc3)cc2)CC1 [AKT inhibitor VIII]; experiment: Viability of human cancer cell lines after 72 h of drug (GDSC screen); conditions: top dose inferred
Procedure: (§1)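 Human cancer cell lines in 384-well plates, medium with 10% serum, drug for 72 h over a 256-fold dose range (nine 2-fold or five 4-fold steps up to the top dose). Adherent lines were fixed and stained with the nucleic acid dye Syto60, suspension lines read with resazurin; signal relative to control wells, capped at 0 and 100%. One two-parameter sigmoid per drug and line, fitted in a mixed model over all curves with the slope shared within a line.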

AICAR = compound: NC(=O)c1ncn([C@@H]2O[C@H](CO)[C@@H](O)[C@H]2O)c1N [AICAR]; experiment: as above; conditions: top dose 2000 µM; top dose inferred
Procedure: as §1

[1] = top dose 2.56 µM, screen: GDSC drug entry 171
[2] = top dose 10.24 µM, screen: GDSC drug entry 228

OVCAR-8 (ovary, adherent)
AUC (AKT inhibitor VIII; [1]): 0.985 | IC50 (AKT inhibitor VIII; [1]): > 2.56 µM | AUC (AKT inhibitor VIII; [2]): 0.902 | IC50 (AKT inhibitor VIII; [2]): > 10.2 µM | AUC (AICAR): 0.861 | IC50 (AICAR): 1420 µM

OVISE (ovary, adherent)
AUC (AKT inhibitor VIII; [1]): 0.915 | IC50 (AKT inhibitor VIII; [1]): > 2.56 µM | AUC (AKT inhibitor VIII; [2]): 0.829 | IC50 (AKT inhibitor VIII; [2]): 9.4 µM | AUC (AICAR): 0.778 | IC50 (AICAR): 1090 µM

OVK-18 (ovary, adherent)
AUC (AKT inhibitor VIII; [2]): 0.797 | IC50 (AKT inhibitor VIII; [2]): 5.44 µM | AUC (AICAR): 0.869 | IC50 (AICAR): > 2000 µM

OVKATE (ovary, adherent)
AUC (AKT inhibitor VIII; [1]): 0.959 | IC50 (AKT inhibitor VIII; [1]): > 2.56 µM | AUC (AKT inhibitor VIII; [2]): 0.84 | IC50 (AKT inhibitor VIII; [2]): > 10.2 µM | AUC (AICAR): 0.861 | IC50 (AICAR): > 2000 µM

OVMIU (ovary, adherent)
AUC (AKT inhibitor VIII; [1]): 0.924 | IC50 (AKT inhibitor VIII; [1]): > 2.56 µM | AUC (AKT inhibitor VIII; [2]): 0.58 | IC50 (AKT inhibitor VIII; [2]): 1.12 µM | AUC (AICAR): 0.949 | IC50 (AICAR): > 2000 µM

OVTOKO (ovary, adherent)
AUC (AKT inhibitor VIII; [1]): 0.918 | IC50 (AKT inhibitor VIII; [1]): > 2.56 µM | AUC (AKT inhibitor VIII; [2]): 0.919 | IC50 (AKT inhibitor VIII; [2]): > 10.2 µM | AUC (AICAR): 0.813 | IC50 (AICAR): 1470 µM

P12-ICHIKAWA (T-cell lymphoblastic leukaemia, suspension)
AUC (AKT inhibitor VIII; [1]): 0.978 | IC50 (AKT inhibitor VIII; [1]): > 2.56 µM | AUC (AKT inhibitor VIII; [2]): 0.429 | IC50 (AKT inhibitor VIII; [2]): 0.428 µM | AUC (AICAR): 0.941 | IC50 (AICAR): > 2000 µM

P30-OHK (lymphoblastic leukaemia, suspension)
AUC (AKT inhibitor VIII; [1]): 0.92 | IC50 (AKT inhibitor VIII; [1]): > 2.56 µM | AUC (AKT inhibitor VIII; [2]): 0.486 | IC50 (AKT inhibitor VIII; [2]): 0.589 µM | AUC (AICAR): 0.526 | IC50 (AICAR): 145 µM

P31-FUJ (acute myeloid leukaemia, suspension)
AUC (AKT inhibitor VIII; [1]): 0.996 | IC50 (AKT inhibitor VIII; [1]): > 2.56 µM | AUC (AKT inhibitor VIII; [2]): 0.979 | IC50 (AKT inhibitor VIII; [2]): > 10.2 µM | AUC (AICAR): 0.809 | IC50 (AICAR): 754 µM

P32-ISH (Burkitt lymphoma, suspension)
AUC (AKT inhibitor VIII; [1]): 0.975 | IC50 (AKT inhibitor VIII; [1]): > 2.56 µM | AUC (AKT inhibitor VIII; [2]): 0.909 | IC50 (AKT inhibitor VIII; [2]): 7.9 µM | AUC (AICAR): 0.886 | IC50 (AICAR): 1280 µM

PA-1 (ovary, adherent)
AUC (AKT inhibitor VIII; [1]): 0.932 | IC50 (AKT inhibitor VIII; [1]): > 2.56 µM | AUC (AKT inhibitor VIII; [2]): 0.741 | IC50 (AKT inhibitor VIII; [2]): 2.58 µM | AUC (AICAR): 0.938 | IC50 (AICAR): > 2000 µM

PA-TU-8902 (pancreas, adherent)
AUC (AKT inhibitor VIII; [1]): 0.944 | IC50 (AKT inhibitor VIII; [1]): > 2.56 µM | AUC (AKT inhibitor VIII; [2]): 0.963 | IC50 (AKT inhibitor VIII; [2]): > 10.2 µM | AUC (AICAR): 0.81 | IC50 (AICAR): 1280 µM

PA-TU-8988T (pancreas, adherent)
AUC (AKT inhibitor VIII; [1]): 0.942 | IC50 (AKT inhibitor VIII; [1]): > 2.56 µM | AUC (AKT inhibitor VIII; [2]): 0.983 | IC50 (AKT inhibitor VIII; [2]): > 10.2 µM | AUC (AICAR): 0.82 | IC50 (AICAR): 1150 µM

PANC-02-03 (pancreas, adherent)
AUC (AKT inhibitor VIII; [1]): 0.914 | IC50 (AKT inhibitor VIII; [1]): > 2.56 µM | AUC (AKT inhibitor VIII; [2]): 0.94 | IC50 (AKT inhibitor VIII; [2]): > 10.2 µM | AUC (AICAR): 0.821 | IC50 (AICAR): 1480 µM

PANC-03-27 (pancreas, adherent)
AUC (AKT inhibitor VIII; [1]): 0.921 | IC50 (AKT inhibitor VIII; [1]): > 2.56 µM | AUC (AKT inhibitor VIII; [2]): 0.926 | IC50 (AKT inhibitor VIII; [2]): > 10.2 µM | AUC (AICAR): 0.921 | IC50 (AICAR): > 2000 µM

PANC-04-03 (pancreas, adherent)
AUC (AKT inhibitor VIII; [1]): 0.951 | IC50 (AKT inhibitor VIII; [1]): > 2.56 µM | AUC (AKT inhibitor VIII; [2]): 0.923 | IC50 (AKT inhibitor VIII; [2]): > 10.2 µM | AUC (AICAR): 0.818 | IC50 (AICAR): > 2000 µM

PANC-08-13 (pancreas, adherent)
AUC (AKT inhibitor VIII; [1]): 0.961 | IC50 (AKT inhibitor VIII; [1]): > 2.56 µM | AUC (AKT inhibitor VIII; [2]): 0.895 | IC50 (AKT inhibitor VIII; [2]): > 10.2 µM | AUC (AICAR): 0.798 | IC50 (AICAR): 1270 µM

PC-3 [JPC-3] (lung adenocarcinoma, adherent)
AUC (AKT inhibitor VIII; [1]): 0.948 | IC50 (AKT inhibitor VIII; [1]): > 2.56 µM | AUC (AKT inhibitor VIII; [2]): 0.887 | IC50 (AKT inhibitor VIII; [2]): > 10.2 µM | AUC (AICAR): 0.873 | IC50 (AICAR): > 2000 µM

PC-14 (lung adenocarcinoma, adherent)
AUC (AKT inhibitor VIII; [1]): 0.986 | IC50 (AKT inhibitor VIII; [1]): > 2.56 µM | AUC (AKT inhibitor VIII; [2]): 0.784 | IC50 (AKT inhibitor VIII; [2]): 3.85 µM | AUC (AICAR): 0.691 | IC50 (AICAR): 400 µM
